This note sets out measurements from PubChem BioAssay AID485344 (National Center for Advancing Translational Sciences (NCATS), 2010).

Screen size: about 340,000 compounds; about 6,900 (2%) were called active. No stated cut-off is given here; in the data, active means inhibition above about 30%; inactive means below that, where a call was filed. This is a selection; strong and weak results do not stand in their true shares. The source gives no active or inactive call for entries shown without one.

Sequence of UniProt P14416 (P14416 whole entry, looked up): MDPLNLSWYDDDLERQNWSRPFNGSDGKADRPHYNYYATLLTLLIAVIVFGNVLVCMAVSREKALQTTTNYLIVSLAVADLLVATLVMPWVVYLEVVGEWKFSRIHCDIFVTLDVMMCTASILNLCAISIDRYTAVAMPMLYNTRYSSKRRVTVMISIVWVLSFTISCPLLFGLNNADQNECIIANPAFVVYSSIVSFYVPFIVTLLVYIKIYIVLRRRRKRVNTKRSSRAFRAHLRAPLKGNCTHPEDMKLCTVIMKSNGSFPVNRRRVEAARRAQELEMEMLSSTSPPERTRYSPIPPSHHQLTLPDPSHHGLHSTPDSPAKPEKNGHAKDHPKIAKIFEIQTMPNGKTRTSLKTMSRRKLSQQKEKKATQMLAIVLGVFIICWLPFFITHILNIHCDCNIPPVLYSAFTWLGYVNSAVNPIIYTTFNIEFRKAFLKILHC

The target of the assay is D(2) dopamine receptor (Homo sapiens) (UniProt P14416). The assay is described as follows: HTS Assay for Allosteric Antagonists of the Human D2 Dopamine Receptor: Primary Screen for Antagonists. Further: 0% is about no effect. To be noted: HEK293 TREx D2 cells, calcium flux, dopamine EC80; at 10 µM; stronger effect = higher value. Put shortly:
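Compounds are added to dye-loaded, induced HEK293 T-REx cells coupled to calcium release via D2; after a 3 min kinetic read an EC80 dopamine stimulus is given and fluorescence is recorded for 3 more min.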
Consider `O=C(Nc1cccc(O)c1)c1cc(-c2ccccc2F)no1`, for which the inhibition is -24.5%. With `CCc1ccc(NC(=O)Cn2nnc(C(=O)Nc3ccc(F)cc3)c2N)cc1` the figure was -11%. Under `N#Cc1ccc(NC(=O)c2ccc3c(c2)nnn3C2CCCC2)cc1` stands -9.44%; under `CCCS(=O)(=O)N1CC(=O)N(c2cc(C)cc(C)c2)C(C)(C(=O)NC2CCCCCC2)C1` (configuration not stated), 12.8%; under `CCC(Sc1ncnc2sc3c(c12)CCCC3)C(=O)OCC(C)C` (configuration not stated), 4.72%. With `CCOc1ccccc1C(=O)Nc1cc(-c2nc3cccnc3s2)ccc1C` the figure was -14.7%; with `COc1ccc(Nc2oc(-c3ccc(COc4ccccc4)o3)nc2C#N)cc1`, 16.4%; with `COc1ccc(-n2c(SCc3nc(-c4ccc(Cl)cc4)no3)nnc2-c2ccncc2)cc1`, -5.2%. As for `CCOc1ccc(-c2cc(CCCC(=O)NCCc3ccc(OC)c(OC)c3)no2)cc1`, the inhibition is 2.46%. `O=C(O)COc1ccccc1C1Nc2ccccc2-c2nnc(SCc3ccc(Cl)cc3)nc2O1` (configuration not stated): the inhibition came out at 16.9%.

Regarding `Cc1ccc(C)c(N2CCN(C(=O)C3CCC(CNS(=O)(=O)c4ccc(Br)s4)CC3)CC2)c1` (configuration not stated), the inhibition was -13.2%. With `COc1cccc(NC(=O)Cn2c(=O)n(CCCCC(=O)NCc3ccc4c(c3)OCO4)c(=O)c3ccccc32)c1` the figure was -2.32%; with `Cc1c(NC(=O)C(F)(F)F)ccc2nc3c(=O)n(C)c(=O)n(C)c3nc12`, -26.9%; with `CCc1ccccc1NC(=O)c1cnn(-c2ccc(F)cc2)c1C1CCNCC1`, -3.97%. With `COc1ccc(-c2cc(-c3ccc4c(c3)NC(=O)CO4)nc3c2COc2ccc(C)cc2-3)cc1` the figure was 10.2%; with `COc1ccc(-n2ncc(C(=O)NCCCN3CCCCC3)c2C2CCN(C(=O)OC(C)(C)C)CC2)cc1`, 4.67%; with `COc1c(Cl)cc(Cl)cc1/C=C(\C#N)c1nc(-c2ccc(Cl)cc2)cs1`, -0.299%.

Take `CCOCCCNC(=O)Cn1cc2c(n1)-c1c(oc(C(=O)N3CCCC3)c1C)CC2`: the inhibition is -9.98%.

Consider `Cc1cccc(OCCOCCn2c(-c3ccc(Cl)cc3)nc3ccccc3c2=O)c1C`, for which the inhibition was determined as 1.6%. Regarding `COC(=O)Cn1ccc2cc(S(=O)(=O)N3CCCCC3)ccc21`, the inhibition was -16.6%. Under `Cc1ccccc1NC(=O)c1ccc(F)c(S(=O)(=O)N2CCc3ccccc3C2)c1` stands -17.5%. Under `Cc1ccc(C(C)C)c(OCCCn2c(=O)oc3ccc(C)cc32)c1` stands 5.9%; under `CN(C)NC(=S)Nc1cccc(Cl)c1`, active: 44.6%; under `CCOc1cccc(C(=O)Nc2ccc(-c3nc4cc(C)cc(C)c4o3)cc2)c1`, -6.98%.

Regarding `CCc1ccccc1NC(=O)NC1CC2CCC(C1)N2Cc1ccco1` (configuration not stated), the inhibition was active: 32.3%. Under `CCCCN(Cc1ccco1)C(=O)c1cc2c(s1)-c1c(C)cccc1OC2` stands -7.8%; under `CCOC(=O)c1ccccc1NC(=O)c1nn(-c2ccc(C)cc2)c(=O)n(C)c1=O`, 5.71%. Under `CCc1ccc(S(=O)(=O)N2CCN(c3ccc(Cl)c(Cl)c3)CC2)cc1` stands 1.86%; under `CCn1c(=O)cc(SCC(=O)Nc2cc(Cl)ccc2OC)c2ccccc21`, -10.7%. Under `Cc1ccc(C(=O)Nc2nnc(S(=O)(=O)N(C)Cc3ccc(F)cc3)s2)cc1` stands -1.84%. Take `CCOc1ccc(-c2nnc(SCC(=O)Oc3ccccc3)o2)cc1`: the inhibition was 2.08%.

As for `Cc1nc(NS(=O)(=O)c2ccccc2)sc1NC(=O)Nc1ccccc1`, the inhibition was active: 55.3%.

Regarding `CSc1ccc(NC(=O)NCCCN2CCN(c3ccccc3F)CC2)cc1`, the inhibition was active: 100%. Under `O=c1c2c3c(sc2nnn1Cc1ccc(F)cc1)CCCC3` stands -3.11%; under `COc1ccc(-n2ccnc(NCc3cccs3)c2=O)cc1`, 3.01%; under `CCOc1ccc(-n2c(C)nc3cc(C(=O)NCc4ccc(C)cc4)ccc32)cc1`, 4.66%.

For the molecule `COc1ccc(-c2ccc(-c3noc(-c4cc(OC)cc(OC)c4)n3)c(OC)n2)cc1`, the inhibition was -2.63%. Under `O=C(O)CNC(=O)c1ccccc1Br` stands active: 39.8%. With `CCNc1nc(CSc2ccccc2)nc2sc(C)c(C)c12` the figure was active: 39.3%. Under `CCOC(=O)C1C(=O)NC(c2ccccc2)=NC1c1cccc(Br)c1` (configuration not stated) stands active: 55.2%; under `CCOC(=O)C1CCCN(C(=O)Cn2ncc3c(C)n(Cc4ccc(F)cc4)c(C)c3c2=O)C1` (configuration not stated), 0.218%; under `CCOc1ccc(OCC)c(NC(=O)c2cnn(-c3ccc(F)cc3)c2C2CCN(C(=O)OC(C)(C)C)CC2)c1`, 7.71%. As to `COc1cc(C(=O)OCC(=O)Nc2ccccc2C(=O)NC2CC2)c([N+](=O)[O-])cc1OC`, the inhibition was active: 34.1%. With `CCCNC(=O)Cn1ncc2c3ccccc3n(CCC)c2c1=O` the figure was -2.17%. With `CC1=C(C(N)=O)C(c2cccnc2)n2nc(SCc3ccccc3Cl)nc2N1` (configuration not stated) the figure was active: 34.6%; with `COc1ccc(S(=O)(=O)N2CCN(Cc3ccc4c(c3)OCO4)CC2)c2ccccc12`, active: 31.3%. With `CCc1cccc(NC(=O)CSc2n[nH]c(-c3ccccc3Cl)n2)c1` the figure was 9.56%; with `O=C(Nc1ccc2nc(SCCOc3ccccc3Cl)sc2c1)c1ccco1`, -27.9%; with `Cc1nnc(N2CCN(c3cccc(Cl)c3)CC2)c2c1nnn2Cc1ccc(F)cc1`, 5.87%. As for `COc1ccc(C)cc1NC(=O)c1c(C(=O)Nc2cccc(C)c2C)sc2nc(C)cc(=O)n12`, the inhibition was -5.4%. Under `COc1cccc(-c2nn(C)c3sc(C(=O)NCCc4cccc(C)c4)cc23)c1` stands -8.25%; under `COc1ccc(CN2CCC(N(CCc3ccccc3)Cc3ccccc3)CC2)c(OC)c1`, active: 34.9%. With `O=C(Cn1cc2c(n1)CCCC2)Nc1cc(C(F)(F)F)ccc1Cl` the figure was -5.73%; with `CCCn1cc(S(=O)(=O)c2ccccc2)c(=O)c2cc(F)c(N3CCCCCC3)cc21`, 5.29%; with `Cc1nc(SCc2ccccc2Cl)c(C#N)c(C)c1C`, -21.1%.

Consider `Cc1cc(C)cc(NC(=O)c2sc3nc4n(c(=O)c3c2C)N=C(c2ccc(F)cc2)CS4)c1`, for which the inhibition stood at 10.6%. With `Cc1ccc2c(c1)C(c1ccccc1)N(C(=O)c1ccc(S(=O)(=O)N3CCCC3)cc1)CC(=O)N2` (configuration not stated) the figure was -2.77%; with `Cn1c(=O)c2nc3ccc(NC(=O)C(F)(F)F)cc3nc2n(C)c1=O`, -18.3%. Under `COc1ccc2sc(N(Cc3cccnc3)C(=O)c3cccs3)nc2c1` stands 4.71%; under `Cc1ccc(NC(=O)CN2C(=O)CSc3ccc(S(=O)(=O)N(C)C)cc32)c(C)c1`, 9.94%; under `COc1ccc2sc(N(Cc3cccnc3)C(=O)C3COc4ccccc4O3)nc2c1` (configuration not stated), 14.2%. Under `O=S(=O)(c1ccccc1)c1nnn2c1nc(N1CCN(c3ccccc3)CC1)c1cc(Cl)ccc12` stands 0.378%; under `CCOC(=O)/C(C#N)=C/c1ccc(-c2ccccc2)o1`, -11.5%. In the case of `Cc1ccc(-n2ncc3c(NC4CCCC4)ncnc32)cc1`, the inhibition was 26.8%. Under `O=C(CN1CCc2ccccc2C1)Nc1ccc(Br)cc1` stands active: 58.4%; under `CCC(Cc1ccccc1)NC(=O)CCS(=O)(=O)c1cc2c(cc1Cl)NC(=O)CO2` (configuration not stated), -2.33%; under `COc1ccc(NC(=O)C2CCCN(c3cnccn3)C2)c(OC)c1` (configuration not stated), 10.3%. With `CCOc1ccc(CNC(=O)Nc2ccc3c(c2)N(C)C(=O)c2ccccc2S3)cc1`, the inhibition turned out to be 16.1%.

Regarding `Cc1ccc(NC(=O)CSc2cn(CC(=O)N3CCOCC3)c3ccccc23)cc1Cl`, the inhibition amounted to 1.88%. With `CCC(C)n1c(=N)c(C(=O)NC2CCCC2)cc2c(=O)n3ccccc3nc21` (configuration not stated) the figure was -2.4%; with `COc1ccc(NC(=O)Cn2c(SCc3ccc(F)cc3)nc3cccnc32)c(OC)c1`, -11.8%; with `COc1cccc(N2CCN(C(=O)c3cc4c(=O)n(Cc5cccnc5)ccc4nc3C)CC2)c1`, 3.51%. Under `C=CCc1cc(Cl)ccc1OCCNCCCOC` stands active: 37.1%; under `CCOc1ccc(C(=O)Nc2nc(-c3ccc(Br)cc3)ns2)cc1`, 17%. With `CC1CCn2c(nc3cc(C(=O)NCCc4ccccc4)ccc32)C1` (configuration not stated) the figure was -3.09%; with `COC(=O)c1ccccc1NC(=O)CCC(=O)N1CC(C)Sc2ccccc21` (configuration not stated), 9.33%. As to `COC(=O)C(NC(=O)CCc1c(C)nc2cc(-c3cccc(F)c3)nn2c1C)C(C)C` (configuration not stated), the inhibition turned out to be 3.06%. With `Cc1ccc2c(=O)cc(C(=O)Nc3ccc(S(=O)(=O)N4CCCCC4)cc3)oc2c1` the figure was 6.89%; with `Cc1cc(C)cc(NC(=O)NCC(O)COc2ccc([N+](=O)[O-])cc2)c1` (configuration not stated), active: 38.2%; with `CCCSc1oc(-c2ccco2)nc1S(=O)(=O)c1ccc(Cl)cc1`, -0.311%. With `CC1(C)CC(=O)C(C(C2=C(O)CC(C)(C)CC2=O)c2ccc([N+](=O)[O-])cc2)C(=O)C1` (configuration not stated) the figure was active: 33.1%; with `COc1ccc(CC(=O)Nc2sc3c(c2C(=O)Nc2cccc(C)c2)CCCCC3)cc1`, 10%. Under `COc1ccccc1N1CCN(C(c2ccc(Cl)cc2)c2nnc(-c3cccc(F)c3)o2)CC1` (configuration not stated) stands -8.75%. Consider `O=C(NCCN1CCN(c2ccccc2)CC1)Nc1ccc(Cl)cc1`, for which the inhibition is active: 82.2%. On to `O=C(Nc1ccc(Cl)c(-c2nc3ccccc3o2)c1)c1ccc(-c2cccc([N+](=O)[O-])c2)o1`, for which the inhibition was 9.84%. Under `Cc1ccc(Cl)cc1Nc1sc(C(=O)c2ccc(F)cc2)c(N)c1S(C)(=O)=O` stands -14.1%. As to `O=C(CSc1nc(=O)n(Cc2ccco2)c2c1CCC2)Nc1cccc(F)c1`, the inhibition is -4.87%.

With `CCOc1ccc(CNCCCSc2nnnn2C)cc1OC`, the inhibition was -4.26%. With `COc1cccc(CNC(=O)Cc2csc3nc(-c4ccccc4)cn23)c1` the figure was -7.54%; with `COc1ccc(C(=O)/C=C/Nc2ccc(S(=O)(=O)Nc3cc(OC)nc(OC)n3)cc2)c(OC)c1`, active: 31%.

As for `Cc1cc(=O)n2c(C(=O)Nc3ccc(Br)cc3)c(C(=O)Nc3ccccc3)sc2n1`, the inhibition is -1.55%.

With `CCCCOC(=O)c1ccc(OC(=O)c2sc3ncn(Cc4ccccc4Cl)c(=O)c3c2C)cc1`, the inhibition is -10.5%. As to `COc1ccccc1OCc1nnc(-c2ccccc2)o1`, the inhibition is -2.32%. With `CCOc1ccccc1NC(=O)Cn1c(=O)n(Cc2ccccc2)c(=O)c2c1c1cc(C)ccc1n2C` the figure was 3.59%.

Turning to `COc1ccc(CCNC(=O)c2ccc3c(c2)CCN3S(=O)(=O)c2ccccc2)cc1OC`, the inhibition amounted to 6.05%. Under `COc1ccccc1Nc1c2c(nc3ccc(NC(=O)c4ccc(OC)c(OC)c4)cc13)CCCC2` stands -3.88%. With `Cc1ccc(-n2ncc(C(=O)NCc3ccccc3)c2C2CCN(C(=O)OC(C)(C)C)CC2)cc1` the figure was 3.73%.

By inhibition is commonly meant the relative decrease from the control value, in per cent.
